Article PMC4336329 (PLoS ONE, 2015)
The campaign covered roughly 310,000 compounds. About 2,200 (0.71%) showed an effect of 50% or more. The effect is printed as a negative number. The list shows a part of the results.

The compounds below were run against human ether-à-go-go-related gene (hERG) potassium channel (human, UniProt Q12809) (assay: primary screen, population patch clamp on CHO cells stably expressing hERG).
Sequence of human ether-à-go-go-related gene (hERG) potassium channel (Q12809 whole entry, looked up): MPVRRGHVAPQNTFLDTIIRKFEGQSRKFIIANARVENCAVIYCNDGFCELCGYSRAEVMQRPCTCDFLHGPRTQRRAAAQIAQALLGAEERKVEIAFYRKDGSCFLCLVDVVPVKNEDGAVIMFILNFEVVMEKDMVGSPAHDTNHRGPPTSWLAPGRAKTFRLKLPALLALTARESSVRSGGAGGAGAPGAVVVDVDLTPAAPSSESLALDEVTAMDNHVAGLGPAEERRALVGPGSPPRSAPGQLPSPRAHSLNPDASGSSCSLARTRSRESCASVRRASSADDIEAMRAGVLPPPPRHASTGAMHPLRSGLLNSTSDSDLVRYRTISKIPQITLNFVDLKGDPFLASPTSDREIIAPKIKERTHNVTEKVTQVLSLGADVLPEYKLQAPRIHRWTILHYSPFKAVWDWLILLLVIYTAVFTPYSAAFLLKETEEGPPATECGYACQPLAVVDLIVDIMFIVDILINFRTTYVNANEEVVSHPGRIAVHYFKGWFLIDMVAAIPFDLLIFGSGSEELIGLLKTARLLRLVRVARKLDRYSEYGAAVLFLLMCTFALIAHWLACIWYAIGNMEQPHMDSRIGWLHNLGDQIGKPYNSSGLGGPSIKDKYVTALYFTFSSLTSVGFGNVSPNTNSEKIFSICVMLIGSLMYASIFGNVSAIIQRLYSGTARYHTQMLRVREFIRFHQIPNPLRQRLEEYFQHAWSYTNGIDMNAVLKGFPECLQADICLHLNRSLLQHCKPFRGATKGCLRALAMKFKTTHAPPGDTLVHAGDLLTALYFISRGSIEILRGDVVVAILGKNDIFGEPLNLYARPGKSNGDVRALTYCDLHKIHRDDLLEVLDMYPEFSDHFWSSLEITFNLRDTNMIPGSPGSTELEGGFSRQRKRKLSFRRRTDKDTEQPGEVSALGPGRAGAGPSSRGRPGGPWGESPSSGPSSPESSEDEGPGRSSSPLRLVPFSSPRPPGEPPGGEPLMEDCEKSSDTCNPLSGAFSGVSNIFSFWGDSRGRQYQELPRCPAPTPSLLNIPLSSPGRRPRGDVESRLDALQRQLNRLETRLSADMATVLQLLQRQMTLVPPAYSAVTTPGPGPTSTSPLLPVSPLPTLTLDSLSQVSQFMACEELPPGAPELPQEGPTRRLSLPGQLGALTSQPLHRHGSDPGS

SMILES	hERG current change (%, negative = inhibition) at 1uM
CCCN1C(=O)c2cc(C(=O)NC3CCCCCC3)ccc2C1O (centres unmarked)	9.82%
COc1cc(NC(=O)c2cccs2)c(OC)cc1NC(=O)Cc1ccccc1	9.29%
CN(C)S(=O)(=O)Oc1ccsc1C(=O)Nc1ccc(Cl)cc1	10.5%
CCOc1ccc(CCNC(=O)COC(=O)c2c(C)nn(-c3ccccc3)c2C)cc1OCC	3.56%
CCC(=O)c1ccc(N2CCN(C(=O)c3cccc(F)c3)CC2)c(F)c1	-15%
CC1(C)C(c2ccccc2)=NC(c2ccc(F)cc2)N1O (centres unmarked)	5.23%
CC(C)CC(=O)Nc1c2c(nn1-c1ccc(F)cc1)CS(=O)C2 (centres unmarked)	16.1%
O=C(NCc1ccccc1)c1ccc(NC(=O)c2ccccc2F)cc1	17.2%
CCOC(=O)c1c(CN2CCCCC2)oc2ccc(O)cc12.Cl	-24.7%
CC(=O)c1ccc(NC(=O)CN2CCOCC2)cc1.Cl	13.2%
N/C(=N\OC(=O)c1ccc(Cl)cc1Cl)c1ccc(Cl)cc1	12.9%
CN1CCN(c2ccc(CNS(=O)(=O)c3ccc(F)cc3Cl)cc2)CC1	1.07%
COc1ccc(CCCC(=O)Nc2cc(C)ccc2OC)cc1	8.36%
Cc1cc(N)n(-c2ncnc3scc(-c4ccccc4)c23)n1	-3.3%
O=S(=O)(NCC1CCCO1)c1cnc(Cl)c(Br)c1 (centres unmarked)	10.9%
N#Cc1ccc2[nH]cc(CCO)c2c1	21.1%
O=C(O)CN1C(=O)c2cccc(Oc3ccc(Cl)cc3)c2C1=O	11.3%
Cc1nc2c(-c3ccc(F)cc3)c(C)nn2c(C)c1CCC(=O)N1CCN(c2ccccn2)CC1	-9.95%
COC(=O)c1sc(NC(=O)c2csc3c2CCCC3)nc1C	-3.04%
CC1(C)CC(=O)C2=C(C1)OC(N)=C(C#N)C2Cc1ccccc1 (centres unmarked)	-0.943%
COc1cccc(-c2nn[nH]n2)c1O	6.45%
CCN(CC)CCNC(=O)C(C)c1nn(CC)c(=O)c2ccccc12.Cl (centres unmarked)	8.85%
COC(=O)C(Cc1ccccc1)NC(=O)CNC(=O)c1sc2ccccc2c1Cl (centres unmarked)	12.6%

SMILES	hERG current change (%, negative = inhibition) at 1uM
COC(=O)C1CCN(CC(=O)Nc2sc3c(c2C#N)CCC3)CC1	-0.0934%
CCOC(=O)C1=C(O)C(=O)N(Cc2ccccc2)CC1	10.1%
COc1ccc(-c2sc3cc4c(cc3c2C#CCO)OCO4)cc1	17.1%
S=c1[nH]nc(-c2ccco2)n1-c1ccc(Cl)cc1	4.22%
COC(=O)c1sccc1NC(=O)c1c(Cl)cnn1C	-8.49%
COc1ccc(N2CCN(Cc3nc4c(c(=O)[nH]c(=O)n4C)n3CCCc3ccccc3)CC2)cc1	-34.7%
C#CCCC(=O)c1ccccc1/C=[N+](\[O-])c1ccccc1	9.72%
CC(=O)Nc1ccc(NC(=S)NC(=O)c2ccc([N+](=O)[O-])c(C)c2)cc1	7%
CCOC(=O)NC(NC(=O)OCC)C(=O)c1ccc(F)cc1	4.86%
Cc1ccccc1N1C(=O)CC(N2CCN(C(=O)c3ccco3)CC2)C1=O (centres unmarked)	12.3%
COc1cc(O)c(C(CCN2CCCC(C)C2)c2ccc(N(C)C)cc2)c(OC)c1 (centres unmarked)	-9.72%
O=C(CNC(=S)N(CCCN1CCOCC1)Cc1cccs1)NC1CC1	12.6%
COc1cccc(C2C(C#N)=C(C)NC3=C2C(=O)CC(C)(C)C3)c1 (centres unmarked)	3.23%
CCOC(=O)N1CCc2c(sc(NC(=O)c3ccc(S(=O)(=O)N4CCCC4)cc3)c2C#N)C1	19.2%
CC(Cc1ccsc1)NC(=O)CCc1nnc(COc2ccccc2)o1 (centres unmarked)	11.4%
CSc1nc(NCC(C)C)nc(N2CCOCC2)n1	-2.7%
Cc1ccc(C2=C/C(=C/c3cccs3)C(=O)O2)cc1	1.48%
O=C(Nc1cccnc1)c1ccc(CN2CCc3ccccc3C2)cc1	8.06%
Cn1c(=O)c2c(ncn2CC(=O)N2CCN(C(=O)c3ccco3)CC2)n(C)c1=O	4.86%
NC(=O)CC(NC(=O)c1ccccc1)c1ccc(N2CCCCCC2)c([N+](=O)[O-])c1 (centres unmarked)	-3.96%
Cn1c(SCC(=O)Nc2ccc(N3CCOCC3)cc2)nnc1-c1ccccc1	5.03%
CC(C)c1ccc(S(=O)(=O)N2CCN(C(=O)Cc3ccsc3)CC2)cc1	15.3%
C/C(=N\NC(=O)c1ccc(NS(=O)(=O)c2cccs2)cc1)c1ccc2c(c1)OCO2	9.38%

SMILES	hERG current change (%, negative = inhibition) at 1uM
COC(=O)CCC[C@H]1CC2(C[C@H](CCCO[Si](C)(C)C(C)(C)C)N1C(=O)OC(C)(C)C)OCCO2	4.33%
COc1ccc(N(CC(=O)NC2CCCCC2)C(=O)c2ccc(C)s2)c(OC)c1	12.7%
CCCC(C)NC(=O)Cc1ccccc1 (centres unmarked)	-2.94%
Cc1c(Br)c([N+](=O)[O-])nn1CC(=O)NCc1ccccn1	18.8%
COc1ccc(CC(=O)NCC2CCCN(Cc3ccccc3Cl)C2)cc1 (centres unmarked)	19.2%
O=C(CCC(=O)N(CC(=O)NC1CCCC1)c1ccc(F)cc1)Nc1nccs1	15.3%
C=C1c2cc(C)ccc2NC(=O)N1c1ccccc1	1.15%
CN(C)CCCN(C(=O)c1ccc(S(=O)(=O)N2CCCCCC2)cc1)c1nc2cc3c(cc2s1)OCCO3.Cl	-10.1%
COc1ccccc1NCCC#N	12%
O=C(Nc1cccc(Cl)c1)c1cc(N=Nc2ccc([N+](=O)[O-])cc2Cl)ccc1O	18.4%
CCOC(=O)c1ccc(-n2c(=S)sc3c(=O)[nH]c(C)nc32)cc1	1.63%
Cn1c(=O)oc2cc(S(=O)(=O)N3CCCCC3)ccc21	12.6%
O=C(Nc1ccc2oc(-c3ccccc3F)nc2c1)c1cncc(Br)c1	2.12%
COc1cccc(N/N=C(\C#N)S(=O)(=O)C(C)(C)C)c1	21.8%
COc1cc(/C=N/NC(=O)CCn2cnc(-c3ccccc3)c2-c2ccccc2)ccc1O	9.24%
CCOC(=O)c1c(C)nn(-c2ccc(NC(=O)c3cccs3)cc2)c1C	14.5%
COc1ccc(N2C(=O)CCC(C(=O)O)C2c2ccc(F)cc2)cc1 (centres unmarked)	20.1%
Cc1cc(Cl)ccc1C(=O)C1CCCN(C(=O)c2nonc2C)C1 (centres unmarked)	7.64%
COc1ccc(S(=O)(=O)N(CC(=O)N2CCN(C)CC2)C2CCCCC2)cc1OC	6.98%
COc1ccccc1N1CCN(C2=Nc3cccc4cccc2c34)CC1	-21.1%
CCOc1ccc(NC(=S)N2CCC(N(C)CCN3CCOCC3)CC2)cc1	12.4%
CN1C(=O)C2(OCCCO2)c2cc(Cl)ccc21	16.1%
Cc1cc(C)n(-c2ccc(C(=O)C(C#N)c3nc4ccccc4n3C)cc2)n1 (centres unmarked)	10.2%

SMILES	hERG current change (%, negative = inhibition) at 1uM
COc1ccc([N+](=O)[O-])cc1NCc1ccccc1.O=C(O)C(=O)O	4.39%
O=C(NCc1ccco1)c1ccc2c(c1)S(=O)(=O)c1ccccc1C2=O	5.46%
O=C(CCn1c(=O)[nH]c2ccsc2c1=O)N1CC(=O)N(CCc2ccccc2)C(=O)C1	4.97%
Cc1nc(C(F)(F)F)c(C(=O)NC(=O)Nc2ccc(OC(F)(F)F)cc2)s1	-0.0309%
CC(=O)C1=C(O)C(=O)N(Cc2cccnc2)C1c1ccccc1 (centres unmarked)	10.8%
O=C(Cc1cn2ccsc2n1)Nc1cccc2cnccc12	12.2%
COC(=O)/C(=C/Nc1ccccc1)[N+](=O)[O-]	4.03%
COc1ccc2oc(=N)c(C(=O)Nc3cccc(C)c3C)cc2c1	16.7%
O=C(NCCS(=O)(=O)N1CCN(c2ccccc2F)CC1)c1ccc(Cl)cc1	-21.8%
CCCC(=O)NC(C)c1nc(-c2ccc(C)cc2)no1 (centres unmarked)	9.81%
Cc1ccc(-n2c(O)c(/C=N/c3ncn[nH]3)c3ccccc3c2=O)cc1	13.8%
COC(=O)C(C)Oc1ccc(=O)[nH]n1 (centres unmarked)	6.9%
COc1ccccc1/C=C/C(=O)OCC(=O)c1c(N)n(C)c(=O)n(C)c1=O	5.86%
COc1ccc(NC(=O)C(Sc2nnc(-c3ccncc3)n2-c2ccccc2C)c2ccccc2)cc1Cl (centres unmarked)	-2.79%
CCCNC(=S)NC1CC2CCCC(C1)N2CC(C)C.Cl (centres unmarked)	14.9%
CC(C)Oc1cccc(C(=O)NC2=NCCS2)c1	5.37%
O=S1(=O)CCC(n2ncc3c2/C(=C/c2ccccc2)CC3)C1 (centres unmarked)	9.48%
COc1ccc(Br)cc1CNc1ccccc1.O=C(O)C(=O)O	9.21%
COC(=O)c1ccc(CNC(=O)COC(=O)CC23CC4CC(CC(Br)(C4)C2)C3)cc1	0.866%
COc1ccc2c(c1)c1nc3n(c(=O)c1n2CC(=O)Nc1ccccc1)CCS3	12.1%
